No constants are given. Whether binding was seen depends on the method and setting. Binding seen in cells or lysates may run through a third protein. Some binding calls cover weakened binding; strength is not graded here.
Assays:
[1] = biological target: FLAG-tagged ASF1A (F-ASF1A) (human) (UniProt Q9Y294); assay: co-IP; anti-FLAG IP (first step of the tandem purification) from lysates of transiently transfected Expi293 cells; IP buffer with 1% Triton X-100, 4 °C; elution with 3xFLAG peptide; immunoblotting
[2] = biological target: T1, HMHA2* BDA2* ST-CDAN1 (human) (UniProt Q8IWY9); assay: pull-down; Strep-Tactin pulldown of transiently transfected ST-CDAN1 variants from Flp-In 293 T-REx lysates; endogenous ASF1A, ASF1B and CDIN1 detected by immunoblotting; IP buffer with 1% Triton X-100, 1 hr at 4 °C
T1 sequence: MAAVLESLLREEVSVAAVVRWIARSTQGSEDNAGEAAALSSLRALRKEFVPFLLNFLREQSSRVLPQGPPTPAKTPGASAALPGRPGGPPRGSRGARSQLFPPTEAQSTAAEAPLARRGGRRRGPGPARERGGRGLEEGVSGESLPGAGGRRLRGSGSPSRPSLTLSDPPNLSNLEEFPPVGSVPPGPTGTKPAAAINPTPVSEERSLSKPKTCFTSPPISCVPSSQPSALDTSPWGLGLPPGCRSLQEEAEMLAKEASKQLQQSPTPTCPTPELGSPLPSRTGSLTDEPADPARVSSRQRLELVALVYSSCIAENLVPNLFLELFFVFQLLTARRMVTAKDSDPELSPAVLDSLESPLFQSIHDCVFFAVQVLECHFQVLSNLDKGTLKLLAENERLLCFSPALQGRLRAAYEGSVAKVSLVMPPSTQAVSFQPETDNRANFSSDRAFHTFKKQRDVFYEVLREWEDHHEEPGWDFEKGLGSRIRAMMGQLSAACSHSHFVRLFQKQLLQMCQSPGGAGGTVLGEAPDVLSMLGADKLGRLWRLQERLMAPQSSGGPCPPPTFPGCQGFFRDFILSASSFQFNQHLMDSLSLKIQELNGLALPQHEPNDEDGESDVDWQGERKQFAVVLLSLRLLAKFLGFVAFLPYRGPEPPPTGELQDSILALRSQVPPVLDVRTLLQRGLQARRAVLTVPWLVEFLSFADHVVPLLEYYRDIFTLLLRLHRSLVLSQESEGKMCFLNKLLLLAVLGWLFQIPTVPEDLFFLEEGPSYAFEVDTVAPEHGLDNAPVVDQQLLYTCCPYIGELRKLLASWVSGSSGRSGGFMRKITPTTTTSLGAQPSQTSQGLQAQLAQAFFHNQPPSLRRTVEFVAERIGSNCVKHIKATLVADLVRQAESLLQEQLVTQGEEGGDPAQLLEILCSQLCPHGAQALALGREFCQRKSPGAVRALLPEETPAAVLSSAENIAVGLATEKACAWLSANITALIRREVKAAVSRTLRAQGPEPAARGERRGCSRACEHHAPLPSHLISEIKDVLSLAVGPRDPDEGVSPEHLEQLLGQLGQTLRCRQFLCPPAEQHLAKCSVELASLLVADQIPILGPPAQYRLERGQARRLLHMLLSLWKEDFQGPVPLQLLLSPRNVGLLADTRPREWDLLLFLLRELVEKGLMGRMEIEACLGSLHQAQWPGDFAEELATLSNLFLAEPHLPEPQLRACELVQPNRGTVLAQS

By UniProt entry, the sequences of proteins in these tests, tags left out.
UniProt Q9Y294: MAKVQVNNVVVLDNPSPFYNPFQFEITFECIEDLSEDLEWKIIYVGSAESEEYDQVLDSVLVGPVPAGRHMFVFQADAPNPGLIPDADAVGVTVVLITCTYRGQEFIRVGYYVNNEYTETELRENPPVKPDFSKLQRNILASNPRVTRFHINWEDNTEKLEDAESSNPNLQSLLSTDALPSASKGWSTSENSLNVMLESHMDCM

[3] = biological target: T2, HMHA1* BDA1* ST-CDAN1 (human) (UniProt Q8IWY9); assay: as above
T2 sequence: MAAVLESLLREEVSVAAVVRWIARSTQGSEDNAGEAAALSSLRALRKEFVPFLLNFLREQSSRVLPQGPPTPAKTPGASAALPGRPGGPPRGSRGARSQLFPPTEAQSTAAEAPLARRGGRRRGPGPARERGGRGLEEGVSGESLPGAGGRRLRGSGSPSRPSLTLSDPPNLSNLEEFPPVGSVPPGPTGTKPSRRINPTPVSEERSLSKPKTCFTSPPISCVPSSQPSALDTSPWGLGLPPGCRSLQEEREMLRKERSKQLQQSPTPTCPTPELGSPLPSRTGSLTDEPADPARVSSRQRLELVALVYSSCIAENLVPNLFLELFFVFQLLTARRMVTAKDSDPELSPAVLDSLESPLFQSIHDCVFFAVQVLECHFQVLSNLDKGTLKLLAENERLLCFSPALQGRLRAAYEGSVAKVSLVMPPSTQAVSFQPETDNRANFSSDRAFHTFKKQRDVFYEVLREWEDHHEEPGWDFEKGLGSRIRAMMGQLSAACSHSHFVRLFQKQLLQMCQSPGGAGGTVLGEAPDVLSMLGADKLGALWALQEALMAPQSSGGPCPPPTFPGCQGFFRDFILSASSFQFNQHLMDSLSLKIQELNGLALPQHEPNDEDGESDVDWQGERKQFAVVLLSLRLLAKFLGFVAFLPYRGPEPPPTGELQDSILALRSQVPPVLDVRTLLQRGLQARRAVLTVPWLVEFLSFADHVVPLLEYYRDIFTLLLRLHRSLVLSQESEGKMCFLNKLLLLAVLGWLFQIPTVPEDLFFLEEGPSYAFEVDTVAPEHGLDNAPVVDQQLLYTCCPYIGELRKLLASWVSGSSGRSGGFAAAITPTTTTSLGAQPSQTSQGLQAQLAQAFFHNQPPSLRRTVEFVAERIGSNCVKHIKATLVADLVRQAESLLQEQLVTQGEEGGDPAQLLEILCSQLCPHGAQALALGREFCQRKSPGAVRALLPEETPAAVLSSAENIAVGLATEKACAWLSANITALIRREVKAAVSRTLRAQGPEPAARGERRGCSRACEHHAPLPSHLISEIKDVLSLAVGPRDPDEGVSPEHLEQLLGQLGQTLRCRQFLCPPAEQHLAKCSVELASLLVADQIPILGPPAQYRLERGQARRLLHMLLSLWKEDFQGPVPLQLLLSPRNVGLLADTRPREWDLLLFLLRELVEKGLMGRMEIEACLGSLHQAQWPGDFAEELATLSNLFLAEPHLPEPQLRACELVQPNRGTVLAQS

binding [1]: binds
binding [2]: binds
binding [3]: binds
B1: FLAG-tagged CDIN1 (F-CDIN1) (natural protein, UniProt Q9Y2V0 1-281, looked up)
chain: MILTKAQYDEIAQCLVSVPPTRQSLRKLKQRFPSQSQATLLSIFSQEYQKHIKRTHAKHHTSEAIESYYQRYLNGVVKNGAAPVLLDLANEVDYAPSLMARLILERFLQEHEETPPSKSIINSMLRDPSQIPDGVLANQVYQCIVNDCCYGPLVDCIKHAIGHEHEVLLRDLLLEKNLSFLDEDQLRAKGYDKTPDFILQVPVAVEGHIIHWIESKASFGDECSHHAYLHDQFWSYWNRFGPGLVIYWYGFIQELDCNRERGILLKACFPTNIVTLCHSIA
notes: C15orf41); cDNA synthesized by IDT; source: Expi293, transiently transfected, in lysate and purified in complexes (anti-FLAG, Strep-Tactin); not shown: 3xFLAG, N-terminal, kept
